Molecular target: thymidine kinase, isolated from virus-infected HeLa cells (HSV1 virus) (Human herpesvirus 1, UniProt P0DTH5)
Conditions: 3 hour incubation, 37° C.

UniProt P0DTH5, sequence (P0DTH5 whole entry): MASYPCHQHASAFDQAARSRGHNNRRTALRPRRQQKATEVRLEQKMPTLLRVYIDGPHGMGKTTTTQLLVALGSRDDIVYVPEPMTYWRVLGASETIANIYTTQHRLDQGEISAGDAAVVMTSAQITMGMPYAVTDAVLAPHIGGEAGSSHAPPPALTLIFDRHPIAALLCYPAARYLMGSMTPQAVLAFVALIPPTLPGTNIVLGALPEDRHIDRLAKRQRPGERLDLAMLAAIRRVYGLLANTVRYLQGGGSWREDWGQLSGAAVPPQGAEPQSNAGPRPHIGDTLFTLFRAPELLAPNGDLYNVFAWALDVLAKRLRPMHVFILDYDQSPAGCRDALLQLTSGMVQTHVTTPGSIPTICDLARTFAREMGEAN

SMILES	converted to the monophosphate derivative
Nc1nc2c(ncn2COCC(O)CO)c(=O)[nH]1 (centres unmarked) [Compound of Formula I, 9-(2,3-Dihydroxy-1-propoxymethyl)guanine]	90%
Nc1nc(O)c2ncn(COC(CO)CO)c2n1 [Compound of Formula II, 9-(1,3-Dihydroxy-2-propoxymethyl)guanine]	95%

— US4816447A, “Anti-viral guanine compounds” (priority 1984, dated 1989)
